Results from the supplement of paper PMC11417369.
The other results are listed elsewhere or left out.

system: PfSIP2 AP2 domain 1 (GST-tagged); assay: gcPBM binding intensity (ln(normalized median fluorescence intensity)); higher = stronger DNA binding
Summary of the method: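 For binding intensity, the highest Masliner-normalised natural-log median intensity across replicate spots of either probe orientation was taken. Protein bound to the array was stained with Alexa488 anti-GST antibody and scanned at 488 nm. The protein, GST-tagged P. falciparum DNA-binding domains from E. coli at about 25 μg on average, had been applied for 1 h to an Agilent 4 × 180k array of primer-extended double-stranded 36-bp intergenic genomic probes and negative controls.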

Row | Sequence | gcPBM binding intensity (ln)
1 | GTATGTATAATATACACACTCACAAGCATTCAAATA [CACACA_site267] | 6.91
2 | TTGTTTTTAAGAAAAACACACACTCCTGTTATTTTA [CACACA_site9230] | 6.68
3 | AAATATTATACAAAAAAAAAAAAAAAAAAAATATAT [CACACA_negctrl_site52] | 6.84
4 | ATTTTGTATATATTTTGTACATATTTTGTATATATT [XGTACX_site885] | 6.99
5 | AAAAATAAAAAGAATTGTACATATAAATCATATACA [XGTACX_site6860] | 6.8
6 | GACCCAATGAAAAGGTCACACATTTTTTCTTTTCGA [CACACA_site5074] | 6.71
7 | TAAAAATATATAAACAGTACATAAATTAAATAAATA [XGTACX_site6962] | 6.78
8 | GTTAAAATTTGTCAATGTACAGAAATAATAAAAAAA [XGTACX_site1879] | 7.13
9 | AAAGTTTTTACCAAGTGTACATATATATATATATAT [XGTACX_site5786] | 9.13
10 | GTTTATTTATTTTATGTGCACATATAACAAAAAAAA | 9.16
11 | TATTTTTTTTAGCGTACATGCAAAAAAAAAAAAAAA [TGCATGCA_site555] | 7.58
12 | TTTTTTCTTTAATACTCAATATGATAAAAGTAACAC [XGTACX_negctrl_site163] | 7.3
13 | ACAAAGTAAAATAATGCATGTAGGTATACATAATTA [TGCATGCA_site607] | 6.64
14 | GTGCTAAAAGTATATGCACACACATATATATGCACA [CACACA_site8472] | 9.97
15 | AATATTTTATATAAATGTACATTTATGAATAATATA [XGTACX_site8477] | 7.1
16 | ACATATTTCCAATAATGTACATACAAAATAAGAATG [XGTACX_site2659] | 7.23
17 | TGTTCATTTATTTACTTACACACTTTATATATGTGG [CACACA_site1410] | 6.94
18 | TAAAAGTAGATATATACACACATAAATATAGATGTA [CACACA_site6457] | 6.78
19 | AGGAAAAAAAAAATGTGTACTTAAAAAAAAAAAATT [XGTACX_site1471] | 7.47
20 | AATAAATAAATATATACACACATATATCTGTACATA [CACACA_site9034] | 7.08
21 | CGTTTATATTTTAACTGTACTCAAAAAGTGCATTGT [XGTACX_site6072] | 8.36
22 | TTTTATCATATTTATTGTACACATAATATACATATC [XGTACX_site1145] | 7.23

Row | Sequence | gcPBM binding intensity (ln)
23 | TGTATGTTTATTTATCGTACATATATATATATATAT [XGTACX_site7315] | 9.89
24 | TTTTATATATTATATACACACATATATATATATATA [CACACA_site2999] | 9.39
25 | CATTTTATAAAAAGCACACATATAGTTATATGCACA [CACACA_site3691] | 9.4
26 | TAAATTATAATAAATACACACAAATTATAATTCTAT [CACACA_site3942] | 6.88
27 | TTTGAATCCTTATATACACACATTATATAATATTAT [CACACA_site4472] | 7.42
28 | TATATATATATACATTGTACATTATTGATTATAACA [XGTACX_site1678] | 9.52
29 | AAATTAGAATTAGGAACACACATATTTATATTTATA [CACACA_site7450] | 6.8
30 | TTTATTCTCCGACACACACACATATATTTATTTATA [CACACA_site7377] | 7.2
31 | ATATATAAAAAATGTGGTACATTCATTTATTATACA [XGTACX_site3495] | 6.96
32 | AATATATAAGTCTACTGTACCCAAAATAAAATTTAT [XGTACX_site8727] | 7.08
33 | GTATATATACATAAATGTACATATATATAAAAAATG [XGTACX_site3271] | 7.01
34 | ATATATCCAAATAGATTACATATATATATATAGATA [TGCATGCA_negctrl_site277] | 7.23
35 | AAATATAATAAAATGACACACGCATATATATATATA [CACACA_site8900] | 9.24
36 | AACATTATAAGACACACACACACATATATAAATATA [CACACA_site6622] | 7.31
37 | ATATATTTATATATTGCACACAAAAAAAAAAAAAAA [CACACA_site8468] | 7.18
38 | AAATAAGAACATAGAATGCACTTTTTTTTTTTTTCC | 8.08
39 | TATTGCCCTTGACACACACACATATAAATAAATATA [CACACA_site7220] | 7.62
40 | TTATGGGACTCAAATACATGCAAAAATATTTTTAAG [TGCATGCA_site559] | 7
41 | TAAGGTTAAATAATATGTACATATTATTATATATAT [XGTACX_site6953] | 7.73
42 | TTAAACCGTGGGAGCACACACACACCCAGACACATA [CACACA_site4337] | 6.73
43 | AAATATGTATATATATATATATATATATATATATAT [GTGCAC_negctrl_site335] | 9.43
44 | CACGTGTAAATAGTTTTACAATATCTCGATATGTAT [CACACA_negctrl_site785] | 6.71

Row | Sequence | gcPBM binding intensity (ln)
45 | GTAATTATATACATACGTACATACACATATGTATAT [XGTACX_site4149] | 7.17
46 | GGATATATGAAACATATTGAAAAACCGTTTAGTACA [CACACA_negctrl_site132] | 6.73
47 | TAATTTTTGTAAACAGTCATGGATTCAAAAAAAAAA [CACACA_negctrl_site593] | 6.69
48 | TTACTATGTAAACACACATGCAATATATGTTAAGCC [TGCATGCA_site253] | 6.91
49 | TTATATGAAAATTATTGTACAATCTATAAAAAAAAT [XGTACX_site4194] | 7.14
50 | TAATAATCAAACTATACACACATAAATAAATATATA [CACACA_site156] | 6.92
51 | AAGGAAATAAGAAAAAGTACACATAAGTATATAACA [XGTACX_site1173] | 7.02
52 | GTAGTAATAAATCTAGTGCATTATATATAACAAAAA [GTGCAC_site9803] | 8.27
53 | TTTTTTTCTTTTTTTTGTACTCATACATACTATCAT [XGTACX_site607] | 7.13
54 | AAAAATGTGCACACGCGTACACACAAAAAAAGAAAA [XGTACX_site4097] | 10
55 | AAAATATATCAAAATAGTACATAATTTTTTAAGAAT [XGTACX_site3515] | 6.95
56 | AATAAAGCAATAAATACACACATATATATATATATA [CACACA_site2934] | 9.48
57 | TATATAAAAAATAGGTGGTCAACTTAAATATTTTAT [XGTACX_site4495] | 7.16
58 | AGTTATGCATCTTAGGTGCTATGCCCAATTTATTTT [GTGCAC_site9977] | 9.21
59 | TTGCCTTAAAAAGGAACACACATGCTTTTTTTAGTT [CACACA_site938] | 6.68
60 | AAAAAAAAAAAAAATGCACACATATATTTCCATATA [CACACA_site8416] | 7.82
61 | AACTTACTCTTTACAAGTACGTAAAAGAAATAGAAA [XGTACX_site1782] | 7.15
62 | ATATACATTTTAAATTTTAATGTAACCCATGGGAGA [CACACA_negctrl_site588] | 6.84
63 | TGAACCCACAAATCACGTACATATATATACACGTGT [XGTACX_site7739] | 7.09
64 | TTTAACAACTATTTCTGTACACATTTTTATATAATT [XGTACX_site4917] | 7.22
65 | TATATACGTAATAGTAGTACTTTAAAATGCGGAAAT [XGTACX_site4597] | 7.36
66 | TGTACGAGTCGTAGAGTGCAGTCTGGAGAAACGTAC [GTGCAC_site9682] | 8.56

Row | Sequence | gcPBM binding intensity (ln)
67 | ATTTATATTATGAGGAGTACAATACTTATAGATGTA [XGTACX_site7510] | 7.2
68 | ATAAATAACTTTTAAATACACACGTAAAATATATTG [CACACA_site3302] | 6.83
69 | AAAAAAGATATATAAACACACATATTTATATACACA [CACACA_site6866] | 6.7
70 | GATAGACACGTGCACACATGCAATACTTTATTCAGT [TGCATGCA_site778] | 9.2
71 | ATACCATATAATTATGTGAGAAAATATAATATTCAT [CACACA_negctrl_site310] | 6.93
72 | ATTTTCTTAAATAAATGTACATGGCATTAAAAGTAA [XGTACX_site5119] | 7.05
73 | TATTTGTATATTCATTCCTGTATTCCCTTTTTTGTA [CACACA_negctrl_site1236] | 6.93
74 | AAAAAAAAAAAAAATACACACAAATAATAAAAATAA [CACACA_site1431] | 7.61
75 | ATATATATATATGTATGTACATAATATTTTTTTTAT [XGTACX_site5551] | 8.87
76 | TGTACGTTTTTTAACACACACACAAAAAAAAAAAAA [CACACA_site6006] | 7.11
77 | TTAAATATCCATATTTCACACATTTCGATATATATA [CACACA_site4208] | 6.88
78 | ACTGTACTATAAAATACACACATATAAATATAAATA [CACACA_site3009] | 7.35
79 | TATTTTAGAGAAAAAAATAAATTACAAAATGTTAGG [CACACA_negctrl_site1645] | 6.88
80 | ATAATGTCATAATTATATCCTTTGGCATAAAATAAA [XGTACX_negctrl_site574] | 6.69
81 | CCTAAATAAATGGACACACACATATTTATATTTATA [CACACA_site6789] | 7.12
82 | GAATGTAAATATTAAAGTACACAGAATATATCTTCA [XGTACX_site8149] | 6.94
83 | TATAATATTATATAATGTACGCATTTATTATTTAAA [XGTACX_site8326] | 7.12
84 | AAATAAAATCATGAATGTACACAAAAATTATTGCAA [XGTACX_site5691] | 7.11
85 | TTTGAAGGAAGGGGGGGAGGGGCCATAACAAAGGAA [GTGCAC_negctrl_site408] | 9.2
86 | TATTACAAAAATGTGTTATTATATAAACGTATAGAG [XGTACX_negctrl_site529] | 7.1
87 | TTTCTTATATTATATAAATATATAGATGTTAATGGT [CACACA_negctrl_site706] | 7.39
88 | AATATAATATAATGCACACATAAAAAAAAAAAAAAA [CACACA_site304] | 7.47
